Laboratory results as given in patent publication US6448281B1 (Boehringer Ingelheim (Canada) Ltd., priority 2000, dated 2002).
pIC50: −log10 of the molar value.

Molecular target: hepatitis C virus RNA dependent polymerase (NS5B) (Hepacivirus hominis (Hepatitis C virus), UniProt P26663)
Test: Inhibition of NS5B RNA dependent RNA polymerase activity (SPA, UMP-[5,6 3H] incorporation)
Settings: for IC50: IC50 μM
[1] = first compound table (printed title TABLE 10; Table 1)

In the case of O=C(O)c1cccc(CNC2CCCC(NC(=O)c3ccc4c(c3)nc(-c3ccoc3)n4C3CCCCC3)C2)c1 (stereo not shown) [Entry 1289], the IC50 [1] was 1 to 5 µM.
For COc1ccc(C(NC(=O)c2ccc3c(c2)nc(-c2ccc(OCc4ccccc4)cc2)n3C2CCCCC2)C(=O)O)cc1OC (stereo not shown) [Entry 2030], the IC50 (Table 2) was 10 to 25 µM.
CC(=O)Nc1nc([C@H](Cc2ccc(O)cc2)NC(=O)c2ccc3c(c2)nc(-c2ccoc2)n3C2CCCCC2)c[nH]1 [Entry 1243, 1-Cyclohexyl-2-furan-3-yl-1H-benzimidazole-5-carboxylic Acid [(S)-1-(2-Acetylamino-1H-imidazol-4-yl)-2-(4-hydroxy-phenyl)-ethyl]-amide] gave an IC50 [1] of 5 to 10 µM.
O=C(O)/C=C/c1ccc(CN[C@H]2CC[C@H](NC(=O)c3ccc4c(c3)nc(-c3ccoc3)n4C3CCCCC3)CC2)cc1 [Entry 1279] showed an IC50 [1] of 1 to 5 µM.
O=C(N[C@@H](Cc1ccc(-n2nnc(C(F)(F)F)c2C(=O)O)cc1)C(=O)O)c1ccc2c(c1)nc(-c1ccoc1)n2C1CCCCC1 [Entry 1083] showed an IC50 [1] of 10 to 25 µM.
For O=C(O)C=Cc1ccc(OC2CC(C(=O)O)N(C(=O)c3ccc4c(c3)nc(-c3ccoc3)n4C3CCCCC3)C2)cc1 [Entry 6003, (2S,4R)4-[4-((Z)-2-Carboxy-viny)-phenoxy]-1-[1-(1-cyclohexyl-2-furan-3-yl-1H-benzimidazol-5-yl)-methanoyl]-pyrrolidine-2-carboxylic Acid], the IC50 (Table 6) was 5 to 10 µM.
COc1ccc(CCNC(=O)c2ccc3c(c2)nc(-c2ccccc2)n3C2CCCCC2)cc1OC [Entry 2004] gave an IC50 (Table 2) of 10 to 25 µM.
In the case of O=C(O)COc1ccc2cc(CC(NC(=O)c3ccc4c(c3)nc(-c3ccoc3)n4C3CCCCC3)C(=O)O)ccc2c1 (racemic) [Entry 21002, 3-(6-Carboxymethoxy-naphthalen-2-yl)-2-{[1-(1-cyclohexyl-2-furan-3-yl-1H-benzimidazol-5-yl)-methanoyl]-amino}-propionic Acid], the pIC50 (IC50, Table 21) was > 6.00.
In the case of COc1ccc([C@H](C)NC(=O)c2ccc3c(c2)nc(-c2ccoc2)n3C2CCCCC2)cc1OC [Entry 1004], the IC50 [1] was 1 to 5 µM.
O=C(O)c1ccc2c(c1)nc(-c1ccc(OCC(=O)N3CCOCC3)cc1)n2C1CCCCC1 [Entry 7017] gave an IC50 (Table 7) of 5 to 10 µM.
In the case of O=C(O)CCNC(=O)NC1CCCC(NC(=O)c2ccc3c(c2)nc(-c2ccoc2)n3C2CCCCC2)C1 (stereo not shown) [Entry 1213], the IC50 [1] was 10 to 25 µM.
With CC(=O)Nc1ccc(-c2nc3cc(C(=O)N[C@@H](Cc4c[nH]c5ccc(O)cc45)C(=O)O)ccc3n2C2CCCCC2)cc1 [Entry 2085] the IC50 (Table 2) was 1 to 5 µM.
O=CNc1ccc(C[C@H](NC(=O)c2ccc3c(c2)nc(-c2ccoc2)n3C2CCCCC2)C(=O)O)cc1 [Entry 16028, (S)-2-{[1-(1-Cyclohexyl-2-furan-3-yl-1H-benzoimidazol-5-yl)-methanoyl]-amino}-3-(4-formylaminophenyl)-propionic Acid] was tested, and the pIC50 (IC50, Table 16) was > 6.00.
Compound CCOC(=O)CCNC(=O)N1CCCC(NC(=O)c2ccc3c(c2)nc(-c2ccoc2)n3C2CCCCC2)C1 (stereo not shown) [Entry 1217] has an IC50 [1] of 10 to 25 µM.
O=C(N[C@@H](Cc1c[nH]c2ccc(O)cc12)C(=O)O)c1ccc2c(c1)nc(-c1ccc(O)nc1)n2C1CCCCC1 [Entry 2140] was tested, and the IC50 (Table 2) was < 1 µM.
O=C(O)/C=C/c1ccc(CN2CCC(CNC(=O)c3ccc4c(c3)nc(-c3ccoc3)n4C3CCCCC3)CC2)cc1 [Entry 1278] was tested, and the IC50 [1] was 1 to 5 µM.
In the case of COC(=O)[C@H](Cc1cn(C)c2ccc(O)cc12)NC(=O)c1ccc2c(c1)nc(-c1ccoc1)n2C1CCCCC1 [Entry 11028, (S)-2-{[1-(1-Cyclohexyl-2-furan-3-yl-1H-benzimidazol-5-yl)methanoyl]amino}-3-(5-hydroxy-1-methyl-1H-indol-3-yl)-propionic Acid Methyl Ester], the pIC50 (IC50, Table 11) was > 6.00.
For O=C(NC(Cc1c[nH]c2ccc(O)cc12)c1ccccn1)c1ccc2c(c1)nc(-c1ccoc1)n2C1CCCCC1 (racemic) [Entry 11032, 1-Cyclohexyl-2-furan-3-yl-1H-benzimidazole-5-carboxylic acid [2-(5-Hydroxy-1H-indol-3-yl)-1-pyridin-2-yl-ethyl]-amide], the pIC50 (IC50, Table 11) was > 6.00.
With COc1ccc(C(NC(=O)c2ccc3c(c2)nc(-c2ncc[nH]2)n3C2CCCCC2)C(=O)O)cc1OC (stereo not shown) [Entry 2068] the IC50 (Table 2) was 5 to 10 µM.
